From PubChem BioAssay AID485344 (National Center for Advancing Translational Sciences (NCATS), 2010)
Screen size: about 340,000 compounds; about 6,900 (2%) were called active. Rule as the data show it: active = inhibition above about 30%; inactive = below that, where a call was filed. The list shows a part of the results, in another mix than the full data. Entries without a call were filed so in the source.
Also: 0% is about no effect.

The compounds below were run against D(2) dopamine receptor (Homo sapiens) (UniProt P14416) (assay: HTS Assay for Allosteric Antagonists of the Human D2 Dopamine Receptor: Primary Screen for Antagonists). Conditions: HEK293 TREx D2 cells, calcium flux, dopamine EC80; at 10 µM; stronger effect = higher value.
Chain of UniProt P14416 (P14416 whole entry, looked up): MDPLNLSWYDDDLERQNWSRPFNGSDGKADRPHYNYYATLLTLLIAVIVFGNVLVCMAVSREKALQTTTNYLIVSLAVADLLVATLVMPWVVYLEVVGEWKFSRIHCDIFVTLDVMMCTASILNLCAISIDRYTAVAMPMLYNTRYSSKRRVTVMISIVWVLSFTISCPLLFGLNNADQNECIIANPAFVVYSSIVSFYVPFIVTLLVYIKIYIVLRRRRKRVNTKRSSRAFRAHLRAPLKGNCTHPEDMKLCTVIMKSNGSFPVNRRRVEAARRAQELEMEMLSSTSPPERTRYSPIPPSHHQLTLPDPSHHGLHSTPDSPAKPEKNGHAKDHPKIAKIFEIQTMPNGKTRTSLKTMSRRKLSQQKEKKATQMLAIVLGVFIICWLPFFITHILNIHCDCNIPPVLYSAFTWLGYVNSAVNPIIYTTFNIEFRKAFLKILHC
In short: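 Antagonism is scored as inhibition of an EC80 dopamine-evoked calcium signal in a force-coupled, tetracycline-inducible HEK293 T-REx D2 line, with compound present 180 s before agonist.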
Cc1ccccc1Cn1c2ccccc2c2cnn(CC(=O)NCc3ccccn3)c(=O)c21 gave an inhibition of -2.17%. Compound Cc1ccc(C)c(N2CCN(C(=O)NCc3noc4ccc(C)cc34)CC2)c1 has an inhibition of 2.48%. For O=C(NCCc1ccccc1)C1CCC(CNS(=O)(=O)c2ccc(Cl)cc2)CC1 (configuration not stated), the inhibition was -4.76%. Cc1ccccc1OCC(=O)Nc1cccc(C(=O)OCc2cc(=O)n3c(C)csc3n2)c1 was tested, and the inhibition was 9.35%. For Cc1ccc(S(=O)(=O)Cc2ccc(C(=O)N3CCN(c4cccc(Cl)c4)CC3)o2)cc1, the inhibition was -7.87%. In the case of O=C(Cn1c(=O)n(-c2ccc(Cl)cc2)c(=O)c2sc3ccccc3c21)NC1CCCC1, the inhibition is reported as -14%. Compound COC(=O)c1ccccc1NC(=O)c1cc2cc(C)ccc2n1C has an inhibition of 6.94%. For CCOc1ccc(-c2c(C)nn3c(C)c(C(=O)NCCc4ccc(Cl)cc4)cnc23)cc1OCC, the inhibition was -20.8%. CCc1nc2cccnc2n1-c1ccc(CC(=O)Nc2cccc(C)c2C)cc1 was tested, and the inhibition was 4.81%. Compound c1ccc(CN2CCN(c3ncnc4c3cnn4-c3ccccc3)CC2)cc1 has an inhibition of 8.98%. In the case of CCC1=Nc2cc(C(=O)NCCN(CC)CC)ccc2Sc2ccccc21, the inhibition is reported as 8.62%. Work on Cc1ccc(NC(=O)c2cc(S(=O)(=O)N3CCc4ccccc43)cn2C)c(Cl)c1 yielded an inhibition of 5.33%. CCc1cccc(NC(=O)C2CCC(CNS(=O)(=O)c3ccc(Br)s3)CC2)c1 (configuration not stated) gave an inhibition of 22.3%. O=C(Nc1cccc(F)c1)c1ccc2c(c1)N(Cc1ccccc1)C(=O)c1ccccc1S2(=O)=O was tested, and the inhibition was -2.26%. O=C(COc1ccc(Cl)cc1)OCc1cc(=O)n2nc(C3CC3)sc2n1 showed an inhibition of -18.2%. Work on COc1ccc(C(=O)NCC(c2ccc(N(C)C)cc2)N2CCc3ccccc32)cc1OC (configuration not stated) yielded an inhibition of -6.98%. COC(=O)c1ccccc1NC(=O)C1CCN(C(=O)N2CC(C)Oc3ccccc32)CC1 (configuration not stated) gave an inhibition of -4.69%. Compound COc1ccc(-c2nc3ccccc3s2)cc1NC(=O)c1ccc(F)cc1 has an inhibition of -10.6%. For Cc1cccc(NC(c2ccccc2F)c2ccc3ccc(C)nc3c2O)n1 (configuration not stated), the inhibition was 10.2%. With Cc1ccc(OCC(=O)Nc2ccccc2OCc2cc(=O)n3ccccc3n2)cc1C the inhibition was 3.55%. O=C(Nc1nnc(S(=O)(=O)N2CCCCC2)s1)c1ccccc1Br gave an inhibition of -4.72%. Work on Cc1ccc(NC(=O)c2ccc3c(O)c(S(=O)(=O)c4ccccc4)c(=O)[nH]c3c2)cc1Cl yielded an inhibition of 19.7%. With Cc1ccc(-c2nnc(Nc3ccc(C(=O)N(C)C)cc3)c3ccccc23)cc1S(=O)(=O)N(C)C the inhibition was 0.0097%. CCN(C(=O)CN1C(=O)COc2ccc(S(=O)(=O)N3CCOCC3)cc21)c1ccc(OC)cc1 was tested, and the inhibition was -10.8%. O=C(Cc1csc2nc(-c3ccc(F)cc3)cn12)NCc1ccccc1 gave an inhibition of 19.7%. Compound O=[N+]([O-])c1cc(-c2nc(-c3ccccc3)no2)ccc1NC1CCCCC1 has an inhibition of -0.985%. Compound C=Cc1ccc(Cn2c(C)c(CNCc3ccccc3C)c(C(=O)O)c2C)cc1 has an inhibition of 2.4%. Compound COc1ccc(C2c3cc(OC)c(OC)cc3CC(=O)N2c2ccc(C)c(F)c2)cc1 (configuration not stated) has an inhibition of 4.39%. For COc1ccccc1CNC(=O)CCn1c(=O)c2cccn2c2cccnc21, the inhibition was -21.4%. With CCCN1Cc2cccc(C(=O)Nc3cccc(C(=O)OCC)c3)c2C1=O the inhibition was -13.6%. CCC1Oc2ccc(Cl)cc2N(CC(=O)NCCc2ccc(Cl)cc2)C1=O (configuration not stated) gave an inhibition of 0.321%. For COCCNc1nc(NCc2cccc(Cl)c2)c2cnn(C)c2n1, the inhibition was 7.26%. For COc1ccc(/C=C/C(=O)Nc2ccc3nc(N4CCC(C)CC4)cc(C)c3c2)cc1, the inhibition was -0.865%. With CCc1cccc(C)c1NC(=O)Cn1nc(C)c2nn(-c3ccc(Cl)cc3)c(C)c2c1=O the inhibition was 10.1%. Work on CCN(c1ccccc1)S(=O)(=O)c1c(-c2ccc(C)cc2)csc1C(=O)OC yielded an inhibition of 3.93%. With COc1ccc2c(c1)cc1c(=O)n(CC(=O)NC3CC3)nc(C)n12 the inhibition was -0.0753%. COc1ccccc1C(=O)Nc1ccc2oc(-c3cccc4c(Br)cccc34)nc2c1 gave an inhibition of 3.56%. CC1=C(c2ccc(C(C)C)cc2)S(=O)(=O)N=C1N1CCC(C(=O)NCCc2ccco2)CC1 gave an inhibition of 24%. COc1cccc(-c2nc(SCC(=O)NC3CCCC3)c(-c3ccc(C)cc3)[nH]2)c1 was tested, and the inhibition was 14%. Cc1ccc(CNC(=O)c2ccc3nc(SCc4ccc(F)cc4)[nH]c3c2)cc1 was tested, and the inhibition was 19.6%. With CCN(CC)C(=O)CSc1nc(-c2ccc(C)cc2)nc2c1Cc1c(CO)cnc(C)c1O2 the inhibition was 5.36%. CCc1cccc(NC(=O)C(Cc2ccccc2)n2cccc2)c1 (configuration not stated) gave an inhibition of 1.63%. Work on CCOc1ccc(CNC(=O)c2ccc3c(c2)nc2n3CCOC2)cc1OC yielded an inhibition of 18.9%. For Cc1ccc(C(=O)Nc2c(C)nc3ccccn3c2=O)cc1C, the inhibition was 4.28%. For COc1ccc(N2CC(NC(=O)c3ccc(S(=O)(=O)N4CCCCC4)cc3)CC2=O)cc1 (configuration not stated), the inhibition was 1.45%. For CCc1ccc(NC(=O)CN(c2cc(C)cc(C)c2)S(=O)(=O)c2c(C)[nH]c(=O)[nH]c2=O)cc1, the inhibition was -0.519%. In the case of Cc1ccsc1C(C(=O)NCc1ccccc1)N(C(=O)c1csnn1)c1ccccc1 (configuration not stated), the inhibition is reported as active: 33%. CCCOc1cccc(C(=O)Nc2cc(-c3ccccc3)no2)c1 gave an inhibition of -2.22%. CC1=C(C(=O)Nc2ccc(F)cc2F)C2(CCN(C(C)C)CC2)OC1=O showed an inhibition of 9.52%. CC(=O)Nc1ccccc1-c1nc2ccccc2n(CC(=O)Nc2cccc(C(F)(F)F)c2)c1=O showed an inhibition of 23.8%. Work on CC(=O)c1cccc(NC(=O)CSc2nc3ccccc3nc2Cc2ccc(F)cc2)c1 yielded an inhibition of 11.7%. With COc1ccc(/C=C/C(=O)Nc2nc(-c3cccs3)ns2)cc1OC the inhibition was -18.9%. CCOc1cccc2cc(S(=O)(=O)c3ccccc3F)c(=O)oc12 was tested, and the inhibition was -6.16%. CCS(=O)(=O)N1CC(=O)N(c2ccc(Cl)cc2)C(C)(C(=O)NC2CCCCC2)C1 (configuration not stated) gave an inhibition of -8.82%. In the case of Cc1ccc(CO)cc1Nc1ncnc2onc(-c3ccc(F)cc3)c12, the inhibition is reported as -6.17%. For Cc1cccc(NC(=O)CCS(=O)(=O)c2cc(Br)cc3c2N(C(=O)C2CC2)CC3)c1, the inhibition was 7.47%. Cc1ccc(CNC(=O)CC2Oc3ccc(Cl)cc3NC2=O)cc1 (configuration not stated) showed an inhibition of 1.06%. Work on CCc1ccc(S(=O)(=O)Nc2cccc(-c3ccc(N4CCOCC4)nn3)c2)cc1 yielded an inhibition of 18.1%. For CCn1c(CC(=O)Nc2ccccc2Cl)nnc1SCC(=O)NC1CCCC1, the inhibition was active: 34.2%. For CC(C)(C)c1ccc(C(=O)NCC(c2ccc(Cl)cc2)N2CCOCC2)cc1 (configuration not stated), the inhibition was -12.2%. CCOc1ccc(NS(=O)(=O)c2ccc3c4c(cccc24)C(=O)N3)cc1 was tested, and the inhibition was 6.03%. Work on Cc1ccc(CN(Cc2ccco2)C(=O)COc2ccc(C)c(C)c2)cc1 yielded an inhibition of -5.64%.
